Laboratory results published in PubChem BioAssay AID1508624 (National Center for Advancing Translational Sciences (NCATS), 2021).
In all, about 48,000 compounds went through this assay and about 120 (0.25%) were called active. Another 4% or so got no clear call; they are omitted. The call rests on the fitted dose curve; in most records, active means well fitted activation curve with a large enough effect; inconclusive means small, poorly fitted or top-dose-only effect, or another doubt; inactive means no such curve, though single readings can be large or run the other way. The list shows a part of the results.

assay: Primary qHTS for Identification of Small Molecule Activators of Huntingtin-Antisense Promoter Activity; conditions: HEK293 HTT-AS promoter firefly luciferase reporter (activity 0% = vehicle and -100% = no light), 24 h; series mostly up to 57.5 µM; activity change, positive = activation: at the top concentration; further: nearly all actives have a fitted effect of over 55% in size
Summary of the method: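 Firefly luciferase signal from promoter-reporter HEK293 cells was scaled between vehicle (0%) and zero RLU (-100%). Compounds were tested at final concentrations of up to 57.5 uM over 24 h at 37 degrees C. PTC124 at 50 uM final served as control inhibitor.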

Activity change, positive = activation, inactive:
Cc1ccc(-c2nnc(SCC(=O)NCCC(C)C)nc2-c2ccc(C)cc2)cc1 -36.5%
CCn1cc(C(=O)NCCCN(CC(C)C)CC(C)C)c(=O)c2cc(S(=O)(=O)N3CCc4ccccc4C3)ccc21 -5.33%
Cc1cc(NC(=O)C2CCCN(S(=O)(=O)c3ccc(Br)s3)C2)ccc1Br (centres undefined) -31%
COc1ccc(CC(=O)Nc2ccc(-c3nc4ccccc4s3)cc2Cl)cc1 -13.7%
O=C(NCc1ccccc1)C(=O)NCC(c1ccco1)S(=O)(=O)c1ccccc1 (centres undefined) -10.8%
COc1ccc(N2CCN(C(CNC(=O)C(=O)NCc3ccc(F)cc3)c3cccnc3)CC2)cc1 (centres undefined) -16.8%
N=C1SC(=Cc2ccc(-c3ccc4c(c3)C(=O)NC4=O)o2)C(=O)N1c1ccc(Br)cc1 2.04%
CCCCN1C(=O)C(O)(c2c(C)[nH]c3ccccc23)c2cc(Br)ccc21 (centres undefined) -26.9%
CCCN(CCC)c1nn2c(=O)c(C(=O)NCc3cccc(OC)c3)cnc2s1 -23.1%
Oc1ccc(C2CNCCc3c2cc(O)c(O)c3Cl)cc1 (centres undefined)
Cc1ccccc1NC(=O)Cn1c(=O)n(CCCCC(=O)NCc2ccccc2Cl)c(=O)c2ccccc21 -15.7%
O=C(CN1C(=O)COc2ccc(S(=O)(=O)Nc3ccccc3)cc21)NCc1ccccc1Cl -10.6%
CCOC(=O)c1c(S(=O)(=O)N2CCC(C(=O)Nc3cccc(C#N)c3)CC2)c(C)n(C)c1C 2.62%
Cc1c(C(=O)OC2CCCCCC2)[nH]c2c1C(=O)CC(c1ccccc1Cl)C2 (centres undefined) -33.6%
CCN(CC)S(=O)(=O)c1ccc(C(=O)NC2CC(=O)N(c3ccc4c(c3)OCCO4)C2)cc1 (centres undefined) -11.3%
CCOC(=O)c1ccc(N2C(=O)c3[nH]nc(-c4ccccc4)c3C2c2cccs2)cc1 (centres undefined) -62.8%
COc1ccc(CCNc2nc(SCc3ccccc3Cl)nc3ccccc23)cc1OC -6.31%
O=C(CSc1nc2c(c(=O)[nH]1)CN(Cc1ccc(F)cc1)CC2)Nc1cccc(C(F)(F)F)c1 -38.9%
Cc1cc(C)nc(-n2nc(C)c3c2NC(=O)CC3c2ccccc2OC(C)C)n1 (centres undefined) -23.5%
COc1ccc(NC(=O)Cn2c(=O)n(CCc3ccccc3)c(=O)c3sc4ccccc4c32)cc1 26.6%
CCC1CN(C(=O)NCc2cccc(OC)c2)c2ccccc2O1 (centres undefined) -12.7%
COc1ccc(-c2[nH]c(-c3ccccc3)nc2SCC(=O)NC2CCCC2)cc1 -22.5%
COc1ccc(CCNC(=O)c2cc3c(=O)n(C)c4cc(Cl)ccc4c3s2)cc1OC -15.7%
COc1ccc(-c2cc(NCc3ccc(C)cc3)n3cnnc3n2)cc1 -31.5%
CCN1C(=O)c2ccccc2Sc2ccc(NC(=O)Nc3ccc(Br)c(C)c3)cc21 -43.4%
O=S1(=O)c2ccccc2N(Cc2ccccc2Cl)c2ccccc21 -19%
CC(C(=O)O)c1cccc(Oc2ccccc2)c1 (centres undefined) 1.71%
Cc1ccc(-c2ccc(=O)n(CC(=O)NC(C)c3ccccc3)n2)cc1 (centres undefined) -2.41%
O=C(c1ccc2c(c1)N(Cc1ccccc1F)C(=O)c1ccccc1S2(=O)=O)N1CCCCCC1 -28.2%
CCCNC(=O)c1cc2n(n1)CCCN(Cc1ccc(F)cc1)C2=O -12%
COc1cccc(C(=O)c2sc(Nc3ccc(C)cc3C)c(S(=O)(=O)c3ccccc3)c2N)c1 -22.7%
C[C@@H]1CN(CCCn2c3ccccc3c3ccccc32)C[C@H](C)N1 -24.2%
CCOc1ccc(CCNC(=O)c2ccc(Cn3c(=O)c4cccn4c4cccnc43)cc2)cc1 -49.5%
COc1ccc(-c2csc3ncnc(Nc4ccc(OC)c(OC)c4)c23)cc1 -20%
CC(C)=CCOc1ccc(/C=C/C(=O)c2ccc(OCC=C(C)C)cc2OCC(=O)O)cc1 -14.3%
CCOC(=O)c1sc(N2C(=O)c3oc4ccc(F)cc4c(=O)c3C2c2cccc(OC)c2)nc1C (centres undefined) -9.8%
Cc1cc(N2CCCCC2)nc2ccc(NC(=O)CCC(=O)N3CCN(c4cccc(Cl)c4)CC3)cc12 -8.02%
CCN(C(=O)Cn1c(SCc2ccccc2F)nc2cccnc21)c1ccccc1 6.29%
O=C(CSCc1nc2cccnc2n1C1CCCCC1)NCc1cccc(Br)c1 -19.5%
O=C(OCc1ccccc1)c1ccc(-c2nnn(Cc3ccccc3F)n2)cc1 -7.42%
Cc1ccc2scc(N3CCN(c4ccccc4)CC3)c(=O)c2c1 0.105%
CCOc1ccc(CCNC(=O)c2ccc3[nH]c(C)c(C)c3c2)cc1 -19.1%
CCCCC(=O)NC1(C(F)(F)F)C(=O)Nc2c1c(=O)[nH]c(=O)n2-c1ccc(F)cc1 (centres undefined) -19.4%
Cc1ccc(C)c(NC(=O)C2CCCN(S(=O)(=O)c3cccc4nsnc34)C2)c1 (centres undefined) -14.6%
COc1cc(Cl)c(NS(=O)(=O)c2ccc3[nH]c(=O)ccc3c2)c(OC)c1 -22.3%
CCC1CCCCN1C(=O)Cn1c(=O)n(-c2ccccc2C(F)(F)F)c(=O)c2c(C)c(C(=O)N(C)C)sc21 (centres undefined) 0.893%
CCOc1ccc(NC(=O)C(CC)n2nc(-c3ccc(C)c(C)c3)ccc2=O)cc1 (centres undefined) -16.7%
CCOc1ccc(OCC)c(NC(=O)CN(c2ccc(C)cc2)S(=O)(=O)c2c(C)n[nH]c2C)c1 -24%
COc1ccc(C2CC(=O)c3c([nH]c(C(=O)OC4CCCC4)c3C)C2)cc1OC (centres undefined) -24.1%
COc1ccccc1N1CCN(C(c2ccccc2)c2nnc(-c3ccccc3Cl)o2)CC1 (centres undefined) -14.1%
Cc1ccc(NC(=O)Cn2c(=O)n(Cc3nc(-c4ccccc4)no3)c(=O)c3cc4c(cc32)OCO4)cc1C -4.15%
COC(=O)c1ccccc1NC(=O)CSc1nc2sc3c(c2c(=O)[nH]1)CCCC3 -11.4%
O=C(CN1C(=O)C2CCCCN2c2ccc(C(=O)N3CCCC3)cc21)NCc1ccccc1 (centres undefined) -18.4%
O=C1OC(c2ccc(O)cc2)(c2ccc(O)cc2)c2ccccc21 -44.7%
COCCCNC(=O)Cn1c(=O)n(-c2cccc(C)c2)c(=O)c2c3c(sc21)CN(C(C)=O)CC3 -19%
CON=C(C(=O)N[C@@H]1C(=O)N2C(C(=O)O)=C(CSC(=O)c3ccco3)CS[C@H]12)c1csc(N)n1 -4.85%
COc1ccc(-c2cc(C(F)(F)F)nc(S(=O)(=O)CCCC(=O)Nc3ccccc3C(F)(F)F)n2)cc1OC -93.7%
COc1ccccc1CNc1nc(-c2ccco2)nn1C(=O)c1ccccc1[N+](=O)[O-] 19%
COc1cc(C(=S)N2CCOCC2)ccc1O -18.1%
